Measurements: PubChem BioAssay AID624170 (National Center for Advancing Translational Sciences (NCATS), 2012)
The whole screen tested about 410,000 compounds, of which about 850 (0.21%) were called active. The inconclusive results got no clear call from the source; some entries with a clear call stand among them for comparison. Calls follow the shape of the dose curve; as a rule, active = well fitted inhibition curve with a large enough effect; inconclusive = small, poorly fitted or top-dose-only effect, or another doubt; inactive = no such curve, though single readings can be large or run the other way. Potencies of inconclusive entries are left out as doubtful fits.
% is scaled to controls: 0 for no effect and ±100 for the full control effect; potency is read from the fitted curve at half-maximal effect; tags tell the direction and shape of the fitted curve.

What follows are molecules tested against Glutaminase kidney isoform, mitochondrial (Homo sapiens) (UniProt O94925) (assay: qHTS for Inhibitors of Glutaminase (GLS)). Settings: GLS enzymatic activity, qHTS titration; series mostly up to 45.5 µM; activity change, negative = inhibition: at the top concentration.
Sequence of UniProt O94925 (O94925 whole entry, looked up, canonical isoform): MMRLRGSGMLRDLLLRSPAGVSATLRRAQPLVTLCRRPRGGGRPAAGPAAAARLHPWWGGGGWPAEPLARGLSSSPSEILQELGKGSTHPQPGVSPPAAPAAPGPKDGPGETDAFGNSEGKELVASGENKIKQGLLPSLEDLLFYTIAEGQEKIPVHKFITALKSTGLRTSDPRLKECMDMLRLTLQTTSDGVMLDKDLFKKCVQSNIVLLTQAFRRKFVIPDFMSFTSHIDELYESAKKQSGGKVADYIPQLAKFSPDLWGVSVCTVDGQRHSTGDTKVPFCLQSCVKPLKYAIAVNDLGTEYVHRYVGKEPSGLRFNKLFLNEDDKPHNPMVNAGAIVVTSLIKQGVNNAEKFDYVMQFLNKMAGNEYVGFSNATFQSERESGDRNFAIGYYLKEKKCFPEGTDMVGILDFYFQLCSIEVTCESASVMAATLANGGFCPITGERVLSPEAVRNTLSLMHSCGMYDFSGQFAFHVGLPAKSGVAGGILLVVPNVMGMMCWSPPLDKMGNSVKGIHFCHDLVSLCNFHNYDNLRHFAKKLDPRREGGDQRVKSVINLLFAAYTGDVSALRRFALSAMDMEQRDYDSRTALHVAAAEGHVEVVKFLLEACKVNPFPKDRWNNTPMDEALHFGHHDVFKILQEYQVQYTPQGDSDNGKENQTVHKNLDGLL
Procedure, shortened: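 hKGA in 45 mM KH2PO4 pH 8.2, 0.02% Tween-20 with pin-transferred compounds; 1 mM L-glutamine (stock) plus glutamate oxidase/HRP/Amplex Red coupling added. Fluorescence read initially and after 30 min at RT.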
In the case of `COc1cc(/C=C2\SC(=S)N(NC(=O)c3ccccc3O)C2=O)ccc1O`, the Potency is reported as inconclusive [inhibitor, single point].
`Cc1ccc(CNC(=O)c2ccc(CSCc3ccccc3C)o2)cc1` was tested, and the “activity change, negative = inhibition” value was inactive: 9.05%.
`CCc1ccc(NC(=O)CSc2nc3c(sc4ccccc43)c(=O)n2CCCOC(C)C)cc1` was tested, and the “activity change, negative = inhibition” value was inactive: 3.23%.
For `Cc1nn(-c2ccc(F)cc2)c2nc(N)c(C#N)c(-c3ccc(O)c(O)c3)c12`, the Potency was inconclusive [inhibitor, partial curve].
For `O=C(c1ccccc1)c1ccc2ccccc2c1`, the Potency was inconclusive [inhibitor, partial curve, poor fit].
For `CCOC(=O)c1c[nH]c2c(C)ccc(Cl)c2c1=O`, the Potency was inconclusive [inhibitor, single point].
In the case of `Cc1ccc(-c2nc(Nc3cccc(C)c3)sc2CC(=O)O)cc1`, the Potency is reported as inconclusive [inhibitor, single point].
With `O=C(CN1CCN(c2ccccc2F)CC1)c1ccc(O)c(O)c1` the “activity change, negative = inhibition” value was inactive: 9.15%.
`CN(C)c1ccc(CNC(=O)CCS(=O)(=O)c2ccc3c(c2)oc(=O)n3C)cc1` was tested, and the Potency was “inactive”.
With `O=C(O)C(c1ccccc1)C(O)c1ccc2c(c1)OCO2` (stereo not given) the Potency was inconclusive [inhibitor, single point].
For `Cc1ccccc1CN1C(=O)c2ccccc2C1c1nnnn1Cc1ccccc1` (stereo not given), the Potency was inconclusive [inhibitor, single point].
With `CCc1nnc(N/N=C/c2c(C)[nH]c3ccccc23)n1N` the Potency was inconclusive [inhibitor, partial curve, poor fit].
In the case of `O=C(O)CCc1ccc(-c2cccs2)n1NC(=O)c1ccc(Cl)cc1`, the Potency is reported as inconclusive [inhibitor, single point].
With `COc1ccc(/C=N/Nc2ccccn2)cc1O` the Potency was inconclusive [inhibitor, partial curve, poor fit].
With `COc1ccc(/C=C(/NC(=O)c2ccccc2)C(=O)NC2CCS(=O)(=O)C2)cc1` (stereo not given) the Potency was inconclusive [inhibitor, single point].
In the case of `O=c1c(-c2cccc(Cl)c2)c[nH]n1-c1ccccc1`, the Potency is reported as inconclusive [inhibitor, single point].
For `Clc1ccc(-c2csc(N/N=C/c3ccco3)n2)cc1`, the Potency was inconclusive [inhibitor, single point].
`O=C(O)c1cc(=S)nc[nH]1` was tested, and the Potency was inconclusive [inhibitor, single point].
With `CC(=O)Nc1ccc(NC(=O)c2ccc(COc3ccccc3)cc2)cc1` the “activity change, negative = inhibition” value was inactive: 8.64%.
`Oc1ccc(NC(=S)Nc2ccccc2)cc1` was tested, and the Potency was inconclusive [inhibitor, single point].
In the case of `COc1ccccc1CNC(=O)C1CCC(CNS(=O)(=O)c2ccc3c(c2)CCCC(=O)N3)CC1` (stereo not given), the “activity change, negative = inhibition” value is reported as inactive: -1.3%.
`O=c1cnnc(N/N=C/c2ccccn2)[nH]1` was tested, and the Potency was inconclusive [inhibitor, single point].
For `CCC(CO)Oc1cc(NC(=O)c2ccccc2F)c2ncn(C(C)C)c2c1` (stereo not given), the Potency was inconclusive [inhibitor, partial curve].
In the case of `COc1cccc(-n2c(=O)c3ccccc3n3c(=S)[nH]nc23)c1`, the Potency is reported as inconclusive [inhibitor, single point].
With `O=C(NC(Cc1ccccc1)C(=O)O)/C(=C\c1ccc(Cl)cc1)NC(=O)c1ccccc1` (stereo not given) the Potency was inconclusive [inhibitor, partial curve].
In the case of `O=S(=O)(Nc1ccccc1)c1ccc(NS(=O)(=O)c2c(F)cccc2F)cc1`, the Potency is reported as inconclusive [inhibitor, partial curve].
For `S=c1[nH]nc(C2CCCCC2)n1/N=C/c1cccc(Cl)c1Cl`, the Potency was inconclusive [inhibitor, partial curve].
For `Cc1cc(C)c2nc(-c3ccccn3)cc(C(=O)NCc3ccc(S(N)(=O)=O)cc3)c2c1`, the Potency was inconclusive [inhibitor, partial curve, poor fit].
For `Cc1ccc(C(=O)O)cc1N1C(=O)c2cccc3c([N+](=O)[O-])ccc(c23)C1=O`, the Potency was inconclusive [inhibitor, partial curve].
`CCc1ccc(NC(=O)C(C)OC(=O)C2CCC(=O)N2)cc1` (stereo not given) was tested, and the Potency was inconclusive [inhibitor, single point].
With `COc1cccc(N2C(=O)CC(Sc3nc(C)cc(C)n3)C2=O)c1` (stereo not given) the “activity change, negative = inhibition” value was inactive: 20.6%.
With `Cn1c(C(=O)OCC(=O)NCC2CCCO2)cc2sccc21` (stereo not given) the Potency was inconclusive [inhibitor, single point].
For `COc1ccc(C(=O)Cn2c(=O)c(-c3cc(C)ccc3NC(C)=O)nc3ccccc32)cc1`, the Potency was inconclusive [inhibitor, single point].
In the case of `Cc1oc2c(c1C(=O)O)C(=O)c1ccccc1C2=O`, the “activity change, negative = inhibition” value is reported as inactive: -15.9%.
With `O=C1CCCC2=C1C(c1ccc(O)c(O)c1)c1c(ccc3ncccc13)N2` (stereo not given) the Potency was inconclusive [inhibitor, single point].
For `O=C(CCl)N1N=C(c2ccco2)CC1c1ccco1` (stereo not given), the Potency was inconclusive [inhibitor, partial curve].
`COc1cc(-c2ccc(Nc3ccccc3C(=O)O)c(OC)c2)ccc1Nc1ccccc1C(=O)O` was tested, and the Potency was inconclusive [inhibitor, single point].
With `COC(=O)C1=C(C)N(Cc2ccccc2)C(=NCCc2cccnc2)N[C@H]1c1ccccc1` the “activity change, negative = inhibition” value was inactive: 5.09%.
With `OCCN1CCN(c2ncnc3nc[nH]c23)CC1` the “activity change, negative = inhibition” value was inactive: 3.18%.
With `O=C(CCS(=O)(=O)c1ccc(Br)cc1)N1CCCCCC1` the Potency was inconclusive [inhibitor, single point].
In the case of `CCN(CC)c1nc(N)c2c(N)n(-c3ccccc3C)c(=S)c(C#N)c2c1C#N`, the “activity change, negative = inhibition” value is reported as inactive: 34.5%.
`COc1ccc(/C=N/Nc2nc3ccccc3[nH]2)c(OC)c1OC` was tested, and the Potency was inconclusive [inhibitor, single point].
With `COc1ccc(/C=N\NC(=O)C2C(=O)NCC2c2ccccc2)cc1O` (stereo not given) the Potency was inconclusive [inhibitor, single point].
With `COc1ccc(-c2ccc3c(c2)C2CC3CCN2)cc1` (stereo not given) the Potency was active: 15.8 µM.
For `O=C(CN1CCN(S(=O)(=O)c2ccc(F)cc2)CC1)c1ccc(O)c(O)c1`, the Potency was inconclusive [inhibitor, partial curve, poor fit].
With `O=C(C1=C[C@@H](c2csc3ccccc23)C[C@@H](OCc2ccc(CO)cc2)O1)N1CCN(Cc2ccccc2)CC1` the “activity change, negative = inhibition” value was inactive: -3.82%.
`S=c1cn[nH]c2ccccc12` was tested, and the Potency was inconclusive [inhibitor, single point].
In the case of `CSc1ccc(S(=O)(=O)NCC(=O)OCC(=O)NCC2CCCO2)cc1[N+](=O)[O-]` (stereo not given), the “activity change, negative = inhibition” value is reported as inactive: 2.86%.
In the case of `O=c1oc2ccc3ccccc3c2c2c1SC(C(F)(F)F)C2` (stereo not given), the Potency is reported as inconclusive [inhibitor, single point].
With `Cc1c(C)c2ccc(O)c(CN3CCCC3)c2oc1=O` the “activity change, negative = inhibition” value was inactive: 34.1%.
With `Cc1cc(=O)oc2c(N)nccc12` the Potency was inconclusive [inhibitor, single point].
With `CCc1nc2ccccc2c(C(=O)Oc2ccc(C(=O)OC)cc2)c1C` the Potency was inconclusive [inhibitor, single point].
In the case of `CC1=C(C(=O)OC(C)C)C(c2ccc(Cl)cc2)n2c(sc(=Cc3ccc(OCC(=O)O)cc3)c2=O)=N1` (stereo not given), the Potency is reported as active: 7.08 µM.
`CCc1ccc(-c2nc(CS(=O)CC(=O)NC3CCCCCC3)c(C)o2)cc1` (stereo not given) was tested, and the “activity change, negative = inhibition” value was inactive: -6.87%.
In the case of `CNC(=O)COc1ccc(Nc2nnc(-c3ccc(C)c(S(N)(=O)=O)c3)c3ccccc23)cc1`, the Potency is reported as inconclusive [inhibitor, single point].
For `O=[N+]([O-])c1cccc(S(=O)(=O)c2ccc(NCCO)c([N+](=O)[O-])c2)c1`, the Potency was inconclusive [inhibitor, single point].
`CCCCNC(=O)CC1N=C2c3ccccc3N=C(SCC(=O)Nc3ccccc3OC)N2C1=O` (stereo not given) was tested, and the Potency was inconclusive [inhibitor, single point].
With `CSc1nnc(Cn2c(=O)sc3ccccc32)n1-c1ccccc1C` the Potency was inconclusive [inhibitor, single point].
For `Cc1c(Cl)c([N+](=O)[O-])nn1CC(=O)N1CCN(C23CC4CC(CC(C4)C2)C3)CC1`, the Potency was inconclusive [inhibitor, partial curve, poor fit].
In the case of `O=C(NC1CCCCC1)C(c1ccccc1)N(C(=O)Cc1ccsc1)c1ccccc1` (stereo not given), the “activity change, negative = inhibition” value is reported as inactive: -0.815%.
For `COc1cccc(-n2c(Cc3cc(=O)[nH]c(=O)[nH]3)nnc2SCc2cccnc2)c1`, the “activity change, negative = inhibition” value was inactive: 1.01%.
In the case of `CCCC(=O)N/N=C1\CS(=O)(=O)N(C)c2ccsc21`, the “activity change, negative = inhibition” value is reported as inactive: 0%.
In the case of `COc1ccc(C(=O)Oc2c(OC)cc(C(=S)N3CCOCC3)cc2OC)cc1OC`, the “activity change, negative = inhibition” value is reported as inactive: -12.6%.
For `Cc1cc(-c2n[nH]c(=S)n2/N=C/C(Cl)=C/c2ccccc2)n[nH]1`, the “activity change, negative = inhibition” value was inactive: -8.47%.
`C=CCn1c(-c2cc3cccc(OC)c3o2)n[nH]c1=S` was tested, and the Potency was inconclusive [inhibitor, partial curve].
In the case of `Cc1cnc([N+](=O)[O-])n1CCOC(=O)NC(=O)c1ccccc1Cl`, the “activity change, negative = inhibition” value is reported as inactive: -4.7%.
For `O=C1C2C3CCC(O3)C2C(=O)N1c1cc(OCC(F)F)cc([N+](=O)[O-])c1` (stereo not given), the “activity change, negative = inhibition” value was inactive: 0.101%.
For `O=c1ccc2cc(S(=O)(=O)NCc3ccc(Cl)cc3)ccc2[nH]1`, the “activity change, negative = inhibition” value was inactive: -1.42%.
For `NC(=O)CC(NC(=O)Cc1ccc(Br)cc1)c1ccc(NCCN2CCCCC2)c([N+](=O)[O-])c1` (stereo not given), the “activity change, negative = inhibition” value was inactive: 11.3%.
With `O=C(Nc1nnc([C@@H]2C[C@H](O)[C@@H](CO)O2)s1)Nc1ccccc1C(F)(F)F` the Potency was inconclusive [inhibitor, full curve].
